Values marked as one replicate rest on one cluster of the flow cell; about a third of the high ones do not repeat.
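Further: ATP exposure 15 min at 22 °C before imaging.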

For this data set, the system named is ATP. As to the kind of experiment: switch fluorescence ratio, 500 uM ATP over buffer (Cy3 cluster intensity, sum of 5 cycles each) (fold (ratio)); higher = stronger signal-on switching upon ATP binding; sequences stand for … in TCGTCGGCAGCGTCAGATGTGTATAAGAGACAGTTTTTTTTTTTTTTTTTTTTTTTTT…TC. The note with it: aptamer strand: ATP DNA aptamer (quencher-CACCTGGGGGAGTATTGCGGAGGAAGG + anchor), 100 nM annealed; ATP concentration: 500 uM; one replicate. A digest of the protocol: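 Cy3-labelled switching-strand clusters on a modified Illumina MiSeq flow-cell were annealed to 100 nM quencher-labelled ATP aptamer and imaged first in selection buffer, then after 15 min with 500 uM ATP at 22 °C. NaOH stripping and re-annealing separated each of five buffer/ATP cycles, and clusters outside 100-1000 RFU were excluded. The fluorescence ratio sums target-cycle Cy3 intensity over buffer-cycle Cy3 intensity per cluster and averages it per switch-domain sequence.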
With CTCAGTTT, the switch fluorescence ratio was found to be 0.995.

As for ACGTCTGATG, the switch fluorescence ratio came to 1.02.

Take TGAGTGTTAG: the switch fluorescence ratio was found to be 0.982.

As for CATAACGTTG, the switch fluorescence ratio was found to be 1.01.

Turning to TCTTAGCTAA, the switch fluorescence ratio came to 1.04.

Regarding CCAGAGAAGC, the switch fluorescence ratio turned out to be 1.06.

On to ATCACCTTGC, for which the switch fluorescence ratio turned out to be 2.34.

For GAGATATGAC, the switch fluorescence ratio was found to be 0.967.

On to GTTTTGGATG, for which the switch fluorescence ratio worked out at 1.01.

For ATATACTCGA, the switch fluorescence ratio worked out at 1.09.

Turning to ACAACCCATA, the switch fluorescence ratio came out at 1.09.

As to GCTTTGCGCC, the switch fluorescence ratio was determined as 0.964.

As for CATTTGTATA, the switch fluorescence ratio is 1.

For the sequence GTCTAAAGGC, the switch fluorescence ratio was 1.03.

On to TGTAATTTAG, for which the switch fluorescence ratio came out at 1.01.

Regarding TTTGTTAATG, the switch fluorescence ratio is 0.994.

For the sequence GAGAAGGTAG, the switch fluorescence ratio is 0.948.

As to AGGACCTTAC, the switch fluorescence ratio worked out at 2.45.

Consider GGTCTTGGTT, for which the switch fluorescence ratio is 1.02.

For the sequence CTTGCCACAG, the switch fluorescence ratio was found to be 1.02.

Turning to ATTGTGACGT, the switch fluorescence ratio was 1.04.

On to GGTTATATAT, for which the switch fluorescence ratio amounted to 1.07.

As to AAGCTGTGTT, the switch fluorescence ratio was found to be 1.04.

As for TGTGCGTTA, the switch fluorescence ratio is 1.02.

Take CACGCTACAA: the switch fluorescence ratio worked out at 1.3.

Turning to TACCAAATAT, the switch fluorescence ratio came to 1.04.

As for AGGCTATCTG, the switch fluorescence ratio stood at 0.994.

With TGTTTGCGCG, the switch fluorescence ratio turned out to be 0.969.

As for GAATGAAGCT, the switch fluorescence ratio worked out at 1.

CTTGATACGC: the switch fluorescence ratio was determined as 1.24.

As to TCAGCACATT, the switch fluorescence ratio is 1.04.

On to CTCAGTTAAG, for which the switch fluorescence ratio worked out at 0.97.

On to GGGTCGTGGT, for which the switch fluorescence ratio worked out at 1.

Take CTAAGATTTT: the switch fluorescence ratio came to 0.982.

In the case of GGGTAGCGGT, the switch fluorescence ratio was 1.01.

In the case of TAGCGGACAC, the switch fluorescence ratio is 1.01.

With AGGATACCAG, the switch fluorescence ratio is 1.06.

For the sequence TATTTTTGT, the switch fluorescence ratio was determined as 0.986.

On to CGTTGTAGTT, for which the switch fluorescence ratio amounted to 0.974.

GCGGTCGCTA: the switch fluorescence ratio was 1.02.

In the case of CATCGATGAG, the switch fluorescence ratio turned out to be 0.982.

Take TGCGAGTGGA: the switch fluorescence ratio is 1.03.

Take TTAGTCGCCC: the switch fluorescence ratio turned out to be 0.995.

Take GGTTCGGT: the switch fluorescence ratio was 1.

Consider GTTCGAAATG, for which the switch fluorescence ratio turned out to be 1.

Take AGAACGAAGC: the switch fluorescence ratio was 0.941.

In the case of CGTCTAGTCT, the switch fluorescence ratio came out at 1.09.

Turning to CGGTGTTGG, the switch fluorescence ratio was determined as 1.01.

Regarding AATGTACTCG, the switch fluorescence ratio was 1.07.

On to GATAATCCGG, for which the switch fluorescence ratio stood at 1.02.

As to ACTTATGAGG, the switch fluorescence ratio is 1.02.

As to CAGGCGTAAC, the switch fluorescence ratio stood at 1.08.

Turning to AACCGTCTCC, the switch fluorescence ratio was found to be 2.06.

For GGAAGCCACT, the switch fluorescence ratio amounted to 1.02.

Consider GACGATTAAT, for which the switch fluorescence ratio is 1.03.

AGGACTCACG: the switch fluorescence ratio was 1.13.

On to CCTTGAGGCT, for which the switch fluorescence ratio came out at 1.01.

For AGTTAAGTCT, the switch fluorescence ratio is 0.998.

Turning to GATATAGGAA, the switch fluorescence ratio was 1.

Turning to AGAATCCAAC, the switch fluorescence ratio was 1.02.

Consider TAAAGTCCA, for which the switch fluorescence ratio is 0.966.

On to TGGCCGTCGG, for which the switch fluorescence ratio was determined as 1.01.

On to AACGAGTTCG, for which the switch fluorescence ratio was determined as 0.991.

On to GATACGACTG, for which the switch fluorescence ratio stood at 1.08.

TGGGTTATCC: the switch fluorescence ratio was 1.

As to TAGAAGGCGT, the switch fluorescence ratio was determined as 0.967.

GACAAGTTAC: the switch fluorescence ratio was 1.56.

(Values after the supplement of paper PMC10126150.)
